The IC50 comes from the fitted curve, where viability falls to half of the control; fits outside the tested doses are given as limits. AUC is the area under the same curve over the 256-fold range up to the top dose, as a fraction; it is 1 without any effect and falls as sensitivity rises. For some assays here: The top dose, if marked as inferred, comes from the curve model; the source does not state it.
What was measured:
Test in all cases: Viability of human cancer cell lines after 72 h of drug (GDSC screen)
BMX-IN-1 (QL-XII-61) = compound: C=CC(=O)Nc1cc(-n2c(=O)ccc3cnc4ccc(-c5ccc(NS(C)(=O)=O)cc5)cc4c32)ccc1C [BMX-IN-1 (QL-XII-61)]; conditions: top dose 10 µM; top dose inferred
Method: (§1)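 Human cancer cell lines in 384-well plates, medium with 10% serum, drug for 72 h over a 256-fold dose range (nine 2-fold or five 4-fold steps up to the top dose). Adherent lines were fixed and stained with the nucleic acid dye Syto60, suspension lines read with resazurin; signal relative to control wells, capped at 0 and 100%. One two-parameter sigmoid per drug and line, fitted in a mixed model over all curves with the slope shared within a line.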

17-AAG = compound: C=CCNC1=C2C[C@@H](C)C[C@H](OC)[C@H](O)[C@@H](C)/C=C(\C)[C@H](OC(N)=O)[C@@H](OC)/C=C\C=C(/C)C(=O)NC(=CC1=O)C2=O [17-AAG]; conditions: top dose 1 µM
Method: as §1

CCT018159 = compound: CCc1cc(-c2n[nH]c(C)c2-c2ccc3c(c2)OCCO3)c(O)cc1O [CCT018159]; conditions: top dose 10 µM; top dose inferred
Method: as §1

BIX02189 = compound: CN(C)Cc1cccc(N=C(c2ccccc2)c2c(O)[nH]c3cc(C(=O)N(C)C)ccc23)c1 [BIX02189]; conditions: top dose 20 µM; top dose inferred
Method: as §1

Dimethyloxalylglycine = compound: COC(=O)CNC(=O)C(=O)OC [Dimethyloxalylglycine]; conditions: top dose 4000 µM; top dose inferred
Method: as §1

Doxorubicin = compound: COc1cccc2c1C(=O)c1c(O)c3c(c(O)c1C2=O)C[C@@](O)(C(=O)CO)C[C@@H]3O[C@H]1C[C@H](N)[C@H](O)[C@H](C)O1 [Doxorubicin]; conditions: top dose 1.024 µM
Method: as §1

OSI-027 = compound: COc1cccc2cc(-c3nc([C@H]4CC[C@H](C(=O)O)CC4)n4ncnc(N)c34)[nH]c12 [OSI-027]; conditions: top dose 20 µM
Method: as §1

Vismodegib = compound: CS(=O)(=O)c1ccc(C(=O)Nc2ccc(Cl)c(-c3ccccn3)c2)c(Cl)c1 [Vismodegib]; conditions: top dose 10 µM; top dose inferred
Method: as §1

VX-11e = compound: Cc1cnc(Nc2ccc(F)cc2Cl)nc1-c1c[nH]c(C(=O)N[C@H](CO)c2cccc(Cl)c2)c1 [VX-11e]; conditions: top dose 5.12 µM; top dose inferred
Method: as §1

TG101348 = compound: Cc1cnc(Nc2ccc(OCCN3CCCC3)cc2)nc1Nc1cccc(S(=O)(=O)NC(C)(C)C)c1 [TG101348]; conditions: top dose 10.24 µM
Method: as §1

UNC1215 = compound: O=C(c1ccc(C(=O)N2CCC(N3CCCC3)CC2)c(Nc2ccccc2)c1)N1CCC(N2CCCC2)CC1 [UNC1215]; conditions: top dose 1 µM; top dose inferred
Method: as §1

Cell Line	AUC (BMX-IN-1 (QL-XII-61))	IC50 (BMX-IN-1 (QL-XII-61)) [µM]	AUC (17-AAG)	IC50 (17-AAG) [µM]	AUC (CCT018159)	IC50 (CCT018159) [µM]	AUC (BIX02189)	IC50 (BIX02189) [µM]	AUC (Dimethyloxalylglycine)	IC50 (Dimethyloxalylglycine) [µM]	AUC (Doxorubicin)	IC50 (Doxorubicin) [µM]	AUC (OSI-027)	IC50 (OSI-027) [µM]	AUC (Vismodegib)	IC50 (Vismodegib) [µM]	AUC (VX-11e)	IC50 (VX-11e) [µM]	AUC (TG101348)	IC50 (TG101348) [µM]	AUC (UNC1215)	IC50 (UNC1215) [µM]
8-MG-BA (glioma, adherent)	0.895	> 10	0.584	0.105	0.893	> 10	0.937	> 20	0.394	130	0.36	0.0269	0.318	0.402	0.954	> 10	0.976	> 5.12	0.86	7.76	0.986	> 1
451Lu (melanoma, adherent)	0.975	> 10	0.496	0.0611	0.852	7.23	0.981	> 20	0.733	1120	0.615	0.131	0.65	3.18	0.944	> 10	0.761	1.74	0.973	> 10.2	0.988	> 1
639-V (bladder, adherent)	0.856	6.22	0.71	0.22	0.887	8.25	0.988	> 20	0.726	973	0.295	0.0188	0.811	8.69	0.956	> 10	0.986	> 5.12	0.921	> 10.2	0.991	> 1
8305C (thyroid, adherent)	0.967	> 10	0.794	0.629	0.859	> 10	0.939	> 20	0.628	630	0.537	0.083	0.863	> 20	0.951	> 10	0.942	> 5.12	0.835	9.87	0.979	> 1
8505C (thyroid, adherent)	0.977	> 10	0.864	0.966	0.908	> 10	0.94	> 20	0.624	561	0.336	0.0217	0.549	1.72	0.921	> 10	0.848	4.17	0.821	6.39	0.957	> 1
A101D (melanoma, adherent)	0.936	> 10	0.779	0.51	0.957	> 10	0.961	> 20	0.467	199	0.456	0.0474	0.981	> 20	0.852	> 10	0.841	4.83	0.981	> 10.2	0.978	> 1
A253 (head and neck, adherent)	0.988	> 10	0.761	0.345	0.957	> 10	0.985	> 20	0.489	–	0.446	0.0457	0.679	3.9	0.965	> 10	0.985	> 5.12	0.959	> 10.2	0.988	> 1
A388 (skin, adherent)	0.895	> 10	0.696	0.242	0.943	> 10	0.977	> 20	0.777	1860	0.395	0.0316	0.642	3.28	0.975	> 10	0.981	> 5.12	0.961	> 10.2	0.981	> 1
A498 (kidney, adherent)	0.968	> 10	0.589	0.124	0.949	> 10	0.971	> 20	0.64	741	0.931	> 1.02	0.807	17.2	0.977	> 10	0.975	> 5.12	0.863	> 10.2	0.976	> 1
ALL-PO (lymphoblastic leukaemia, suspension)	0.979	> 10	0.832	0.692	0.913	> 10	0.465	0.998	0.316	74.1	0.498	0.0632	0.242	0.214	0.853	8.52	0.816	3.05	0.27	0.135	0.981	> 1
AMO-1 (haematopoietic neoplasm, suspension)	0.949	> 10	0.701	0.209	0.942	> 10	0.866	13.8	0.649	605	0.699	0.21	0.363	0.554	0.991	> 10	0.928	> 5.12	0.833	5.35	0.98	> 1
ASH-3 (thyroid, adherent)	0.982	> 10	0.816	0.555	0.851	7.68	0.988	> 20	0.718	1030	0.394	0.0328	0.881	> 20	0.985	> 10	0.988	> 5.12	0.981	> 10.2	0.987	> 1
ATN-1 (T-cell lymphoblastic leukaemia, suspension)	0.842	6.36	0.723	0.256	0.863	7.73	0.931	> 20	0.667	702	0.493	0.0613	0.374	0.575	0.963	> 10	0.959	> 5.12	0.561	0.928	0.986	> 1
BE-13 (lymphoblastic leukaemia, suspension)	0.873	8.59	0.984	> 1	0.931	> 10	0.794	8.55	0.442	176	0.42	0.0392	0.383	0.609	0.967	> 10	0.852	3.57	0.721	2.58	0.972	> 1
BHT-101 (thyroid, adherent)	0.975	> 10	0.894	> 1	0.871	9.91	0.976	> 20	0.788	1820	0.76	0.371	0.668	3.74	0.876	> 10	0.614	0.667	0.877	> 10.2	0.973	> 1
BICR10 (head and neck, adherent)	0.958	> 10	0.661	0.188	0.909	> 10	0.985	> 20	0.456	186	0.929	> 1.02	0.964	> 20	0.981	> 10	0.985	> 5.12	0.908	> 10.2	0.983	> 1
BL-41 (Burkitt lymphoma, suspension)	0.705	2	0.946	> 1	0.874	6	0.835	8.99	0.239	55.6	0.596	0.11	0.034	< 0.0781	0.937	> 10	0.924	4.76	0.589	1.06	0.991	> 1
BT-483 (breast, adherent)	0.965	> 10	0.816	> 1	0.975	> 10	0.965	> 20	0.926	> 4000	0.917	> 1.02	0.514	1.41	0.968	> 10	0.973	> 5.12	0.974	> 10.2	0.975	> 1
Becker (glioma, adherent)	0.968	> 10	0.456	0.0467	0.819	6.64	0.967	> 20	0.511	270	0.79	–	0.511	1.35	0.962	> 10	0.948	> 5.12	0.899	> 10.2	0.982	> 1
C2BBe1 (large intestine, adherent)	0.976	> 10	0.703	0.255	0.952	> 10	0.938	> 20	0.753	1500	0.815	0.662	0.37	0.518	0.883	> 10	0.908	> 5.12	0.896	> 10.2	0.982	> 1
C32 (melanoma, adherent)	0.887	> 10	0.176	0.00604	0.883	> 10	0.987	> 20	0.944	> 4000	0.971	> 1.02	0.982	> 20	0.986	> 10	0.929	> 5.12	0.962	> 10.2	0.985	> 1
CAL-12T (non-small cell lung carcinoma, adherent)	0.968	> 10	0.775	0.446	0.805	5.78	0.906	> 20	0.282	55.5	0.347	0.0228	0.327	0.387	0.972	> 10	0.869	> 5.12	0.813	6.39	0.982	> 1
